# Laboratory results as given in the supplement of paper PMC10037445.
# In all, about 2,900 compounds were measured (“IRF Lucia reporter activity, fold change vs agonist alone”: median about 0.9, highest 2% from about 2.8 on). The list shows a part of the results.
# What was measured:
# RAW-Dual [1] = assay: IRF Lucia reporter activity, fold change vs agonist alone; cytotoxicity flag (confluency mask): not cytotoxic; higher = enhanced IRF activity
# Outline: (§1)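 Reporter activity is given as fold change relative to agonist-alone wells. To measure it, 50 nL of library stock was pin-tooled onto RAW-Dual macrophages (50,000 cells/well, DMEM, 384-well plates), a PRR agonist followed 1 h later, and cells stayed at 37 °C, 5% CO2. Twenty hours on, supernatant was assayed for IRF (QuantiLuc luminescence) and NF-κB (QuantiBlue, 620 nm absorbance), and wells under 70% of agonist-control IncuCyte confluency in both mask sets were marked cytotoxic.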
# RAW-Dual [2] = assay: IRF Lucia reporter activity, fold change vs agonist alone; higher = enhanced IRF activity; details: agonist: MPLA (TLR4) […]
# Outline: as §1
# RAW-Dual [3] = assay: IRF Lucia reporter activity, fold change vs agonist alone; cytotoxicity flag (confluency mask): cytotoxic (confluency <70% of control); higher = enhanced IRF activity
# Outline: as §1
# [4] = agonist: 3'3'-cGAMP (STING) 10 ug/mL
# [5] = library stock concentration (final ~1000-fold dilution): 10 mM, cytotoxicity flag (confluency mask): not cytotoxic
# [6] = library stock concentration (final ~1000-fold dilution): 10 mM, cytotoxicity flag (confluency mask): cytotoxic (confluency <70% of control)
compound,measurement,setting,value
Cl.NCc1c[nH]c(=S)n1C1CCc2c(F)cc(F)cc2C1 (stereo unspecified) (library stock concentration (final ~1000-fold dilution): 10 mM),IRF Lucia reporter activity,RAW-Dual [1]; [4],0.88
same,IRF Lucia reporter activity,RAW-Dual [1]; agonist: LPS (TLR4) 0.1 ug/mL,0.944
CN1C(=O)c2sccc2N(C)c2nc(Nc3ccc(S(N)(=O)=O)cc3)ncc21 (library stock concentration (final ~1000-fold dilution): 10 mM),IRF Lucia reporter activity,RAW-Dual [1]; [4],0.385
same,IRF Lucia reporter activity,RAW-Dual [1]; agonist: LPS (TLR4) 0.1 ug/mL,0.128
COC1CC2CCC(C)C(O)(O2)C(=O)C(=O)N2CCCCC2C(=O)OC(C(C)CC2CCC(O)C(OC)C2)CC(=O)C(C)C=C(C)C(O)C(OC)C(=O)C(C)CC(C)C=CC=CC=C1C (stereo unspecified) (library stock concentration (final ~1000-fold dilution): 10 mM),IRF Lucia reporter activity,RAW-Dual [1]; [4],1.05
same,IRF Lucia reporter activity,RAW-Dual [1]; agonist: LPS (TLR4) 0.1 ug/mL,2.09
COC1CC2CCC(C)C(O)(O2)C(=O)C(=O)N2CCCCC2C(=O)OC(C(C)CC2CCC(O)C(OC)C2)CC(=O)C(C)C=C(C)C(O)C(OC)C(=O)C(C)CC(C)C=CC=CC=C1C (stereo unspecified),IRF Lucia reporter activity,RAW-Dual [2]; [5],1.46
COC1CC2CCC(C)C(O)(O2)C(=O)C(=O)N2CCCCC2C(=O)OC(C(C)CC2CCC(O)C(OC)C2)CC(=O)C(C)C=C(C)C(O)C(OC)C(=O)C(C)CC(C)C=CC=CC=C1C (stereo unspecified) (library stock concentration (final ~1000-fold dilution): .1 mM),IRF Lucia reporter activity,RAW-Dual [1]; [4],0.922
same,IRF Lucia reporter activity,RAW-Dual [1]; agonist: LPS (TLR4) 0.1 ug/mL,0.698
CN1CCC(OC(c2ccccc2)c2ccccc2)CC1.Cl,IRF Lucia reporter activity,RAW-Dual [2]; [5],1.09
CN1CCC(OC(c2ccccc2)c2ccccc2)CC1.Cl (library stock concentration (final ~1000-fold dilution): 10 mM),IRF Lucia reporter activity,RAW-Dual [1]; [4],0.796
same,IRF Lucia reporter activity,RAW-Dual [1]; agonist: LPS (TLR4) 0.1 ug/mL,0.768
CC(=O)c1c(C)c2cnc(Nc3ccc(N4CCNCC4)cn3)nc2n(C2CCCC2)c1=O.Cl,IRF Lucia reporter activity,"RAW-Dual [2]; library stock concentration (final ~1000-fold dilution): 10 mM water, cytotoxicity flag (confluency mask): not cytotoxic",1.08
CC(=O)c1c(C)c2cnc(Nc3ccc(N4CCNCC4)cn3)nc2n(C2CCCC2)c1=O.Cl (library stock concentration (final ~1000-fold dilution): 10 mM water),IRF Lucia reporter activity,RAW-Dual [1]; [4],0.35
same,IRF Lucia reporter activity,RAW-Dual [1]; agonist: LPS (TLR4) 0.1 ug/mL,0.962
CCC1(O)CC2CN(CCc3c([nH]c4ccccc34)C(C(=O)OC)(c3cc4c(cc3OC)N(C)C3C(O)(C(=O)OC)C(OC(C)=O)C5(CC)C=CCN6CCC43C65)C2)C1.O=S(=O)(O)O (stereo unspecified) (library stock concentration (final ~1000-fold dilution): 10 mM),IRF Lucia reporter activity,RAW-Dual [3]; [4],0.226
same,IRF Lucia reporter activity,RAW-Dual [3]; agonist: LPS (TLR4) 0.1 ug/mL,2.16
CCC1(O)CC2CN(CCc3c([nH]c4ccccc34)C(C(=O)OC)(c3cc4c(cc3OC)N(C)C3C(O)(C(=O)OC)C(OC(C)=O)C5(CC)C=CCN6CCC43C65)C2)C1.O=S(=O)(O)O (stereo unspecified),IRF Lucia reporter activity,RAW-Dual [2]; [6],2.07
Cc1ccc(C(=O)c2ccc(CC(=O)O)n2C)cc1,IRF Lucia reporter activity,RAW-Dual [2]; [5],1.04
Cc1ccc(C(=O)c2ccc(CC(=O)O)n2C)cc1 (library stock concentration (final ~1000-fold dilution): 10 mM),IRF Lucia reporter activity,RAW-Dual [1]; [4],1.01
same,IRF Lucia reporter activity,RAW-Dual [1]; agonist: LPS (TLR4) 0.1 ug/mL,1.15
O=C(O)CN1C(=O)c2cccc3cccc(c23)C1=O,IRF Lucia reporter activity,RAW-Dual [2]; [5],1.01
O=C(O)CN1C(=O)c2cccc3cccc(c23)C1=O (library stock concentration (final ~1000-fold dilution): 10 mM),IRF Lucia reporter activity,RAW-Dual [1]; [4],1.06
same,IRF Lucia reporter activity,RAW-Dual [1]; agonist: LPS (TLR4) 0.1 ug/mL,0.961
Cc1ccsc1C(=CCCN1CCCC(C(=O)O)C1)c1sccc1C (stereo unspecified),IRF Lucia reporter activity,RAW-Dual [2]; [5],1
Cc1ccsc1C(=CCCN1CCCC(C(=O)O)C1)c1sccc1C (stereo unspecified) (library stock concentration (final ~1000-fold dilution): 10 mM),IRF Lucia reporter activity,RAW-Dual [1]; [4],0.964
same,IRF Lucia reporter activity,RAW-Dual [1]; agonist: LPS (TLR4) 0.1 ug/mL,1.29
CC(C)Oc1ccc(-c2c[nH]cc2CN(C)CCN)cc1 (library stock concentration (final ~1000-fold dilution): 10 mM),IRF Lucia reporter activity,RAW-Dual [1]; [4],0.247
same,IRF Lucia reporter activity,RAW-Dual [1]; agonist: LPS (TLR4) 0.1 ug/mL,0.755
NS(=O)(=O)c1cc(C2(O)NC(=O)c3ccccc32)ccc1Cl (stereo unspecified) (library stock concentration (final ~1000-fold dilution): 10 mM),IRF Lucia reporter activity,RAW-Dual [1]; [4],0.904
same,IRF Lucia reporter activity,RAW-Dual [1]; agonist: LPS (TLR4) 0.1 ug/mL,1.08
NS(=O)(=O)c1cc(C2(O)NC(=O)c3ccccc32)ccc1Cl (stereo unspecified),IRF Lucia reporter activity,RAW-Dual [2]; [5],0.938
O=C(NCc1c(F)cc(F)cc1F)c1cn2c(c(O)c1=O)C(=O)N1C3CCC(C3)OC1C2 (stereo unspecified) (library stock concentration (final ~1000-fold dilution): 10 mM),IRF Lucia reporter activity,RAW-Dual [3]; [4],0.19
same,IRF Lucia reporter activity,RAW-Dual [3]; agonist: LPS (TLR4) 0.1 ug/mL,0.312
O=C(NCc1c(F)cc(F)cc1F)c1cn2c(c(O)c1=O)C(=O)N1C3CCC(C3)OC1C2 (stereo unspecified),IRF Lucia reporter activity,RAW-Dual [2]; [6],0.253
CC(C)(C)c1cnc(CSc2cnc(NC(=O)C3CCNCC3)s2)o1,IRF Lucia reporter activity,RAW-Dual [2]; [6],0.0426
CC(C)(C)c1cnc(CSc2cnc(NC(=O)C3CCNCC3)s2)o1 (library stock concentration (final ~1000-fold dilution): 10 mM),IRF Lucia reporter activity,RAW-Dual [3]; [4],0.0084
same,IRF Lucia reporter activity,RAW-Dual [3]; agonist: LPS (TLR4) 0.1 ug/mL,0.0291
Cc1nc[nH]c1CN1CCc2c(c3ccccc3n2C)C1=O.Cl,IRF Lucia reporter activity,"RAW-Dual [2]; library stock concentration (final ~1000-fold dilution): 2 mM water, cytotoxicity flag (confluency mask): not cytotoxic",1.28
Cc1nc[nH]c1CN1CCc2c(c3ccccc3n2C)C1=O.Cl (library stock concentration (final ~1000-fold dilution): 2 mM water),IRF Lucia reporter activity,RAW-Dual [1]; [4],1.17
same,IRF Lucia reporter activity,RAW-Dual [1]; agonist: LPS (TLR4) 0.1 ug/mL,0.816
